Source: the supplement of paper PMC12217912
Some of the results follow. Sequences were assembled here from the parent chain. Inactive controls read about 0.05.

B1: TEV protease; numbered along this chain (parent)
chain: MGESLFKGPRDYNPISSSICHLTNESDGHTTSLYGIGFGPFIITNKHLFRRNNGTLVVQSLHGVFKVKDTTTLQQHLVDGRDMIIIRMPKDFPPFPQKLKFREPQREERICLVTTNFQTKSMSSMVSDTSCTFPSGDGIFWKHWIQTKDGQCGSPLVSTRDGFIVGIHSASNFTNTNNYFTSVPKNFMELLTNQEAQQWVSGWRLNADSVLWGGHKVFMVKPEEPFQPVKEATQL

Variants of: B1
Assay: raw area under fraction-flipped curve 0-4 h after induction (AUC4h, not background-subtracted), DNA-recorder readout of cleavage of the substrate (dimensionless); higher = more cleavage of the substrate by the protease variant
Conditions: temperature: 34 °C; time window: 0-4 h after rhamnose induction
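Note: Bxb1 expression induced with 0.2% (w/v) L-rhamnose at OD600 near 0.5, cultures sampled hourly, flipped fraction per protease–substrate barcode pair counted by paired-end Illumina sequencing.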

Variant	area with substrate ENLYEQS	area with substrate ENLYIQS	area with substrate ENLYLQS	area with substrate ENLYPQS	area with substrate ENLYQQS	area with substrate ENLYGQS	area with substrate ENLYHQS	area with substrate ENLYKQS	area with substrate ENLYMQS	area with substrate ENLYNQS
F6C	0.0737	0.0908	0.0777	0.0359	0.0602					
Q75S	0.0613		0.0804	0.0649	0.0577	0.0734	0.0752	0.0635	0.0676	0.0575
E231S		0.0796	0.0651	0.0378		0.0671	0.0722	0.0469	0.1	0.0657
L73A					0.0862	0.0603	0.0583	0.0451	0.0424	
Q74T			0.0633			0.0645	0.0667	0.0603		0.0649
M188Q				0.0552		0.0699	0.0732	0.0412	0.0805	
V157C		0.114				0.0696	0.0449		0.103	0.061
S154E					0.0745	0.0613	0.0551			
L99A		0.12		0.0688		0.0666	0.0709	0.0695	0.0847	0.069
Q74N						0.0688	0.0628	0.0706		
N178P				0.0602		0.0697	0.0613		0.0557	
Y34P		0.0369				0.067	0.0582	0.076	0.0578	0.0548
C111E		0.105	0.0938		0.0707	0.0495	0.0751			
S171W				0.0644	0.0924	0.0774		0.0615		0.0602
F95Q						0.0484				
G138E				0.0692		0.0836				

Variant	area with substrate ENLYEQS	area with substrate ENLYIQS	area with substrate ENLYLQS	area with substrate ENLYPQS	area with substrate ENLYQQS	area with substrate ENLYGQS	area with substrate ENLYHQS	area with substrate ENLYKQS	area with substrate ENLYMQS	area with substrate ENLYNQS
V58C				0.0644		0.0708	0.0692	0.0641	0.0723	0.0655
I110A		0.104				0.0515				0.0621
T71S							0.0677	0.0577		0.0605
T159H		0.114		0.0676	0.0612		0.0684			0.0649
V165H				0.0549			0.046			
D79Y		0.126	0.0938	0.057			0.0764	0.0569		0.0599
A196C							0.0645			
F117T		0.157			0.0555		0.0545			
P94C							0.055		0.0847	
P228T		0.0821	0.0824				0.0792	0.075		0.0777
C131G		0.092	0.0708		0.0576					0.0568
C131L								0.0593		
P228I								0.0706		0.0793
F163G									0.0646	
C131A				0.0677						
Q97V				0.066						

Same assay, conditions: temperature: 34 °C; time window: 0-4 h after rhamnose induction

Variant	area with substrate ENLYRQS	area with substrate ENLYSQS	area with substrate ENLYTQS	area with substrate ENLYVQS	area with substrate ENLYYQS	area with substrate ENLYWQS
Q75S	0.0575	0.0657	0.0598	0.0858	0.053	
E231S		0.0783				0.0509
L73A		0.0599				
M188Q	0.0374	0.0906			0.0606	
V157C			0.0905	0.109	0.046	
S154E		0.0733				0.0633
L99A				0.0764	0.0651	
N178P	0.0585	0.0704	0.0579			0.0577
Y34P	0.0512	0.0036		0.0418	0.0577	
C111E						0.0854
S171W					0.0625	
F95Q					0.0494	
G138E				0.0837	0.052	
V58C	0.0649	0.0749	0.0726	0.116	0.0794	0.0733
I110A	0.055			0.0956		
T71S		0.0538			0.0518	0.0686
T159H			0.0933			0.0929
V165H		0.064				0.0545
D79Y				0.0976		0.0927
A196C					0.0525	
F117T		0.0658		0.122	0.0701	
P94C				0.121	0.0668	0.0734
P228T			0.0865	0.113	0.0527	
C131G				0.0933		
C131A				0.153		0.0874
N193V	0.047				0.0607	
